Laboratory results reported in PubChem BioAssay AID686979 (National Center for Advancing Translational Sciences (NCATS), 2013).
In all, about 420,000 compounds went through this assay and about 50,000 (12%) were called active. Inconclusive means that the source gave no clear call. Such entries were picked first, then a sample of the others. Calls follow the shape of the dose curve; as a rule, active = well fitted inhibition curve with a large enough effect; inconclusive = small, poorly fitted or top-dose-only effect; inactive = flat fitted curve, though single readings scatter. Potencies of inconclusive entries are left out as doubtful fits.
% is scaled to controls: 0 for no effect and ±100 for the full control effect; potency is read from the fitted curve at half-maximal effect; tags tell the direction and shape of the fitted curve.

Assay: qHTS for Inhibitors of human tyrosyl-DNA phosphodiesterase 1 (TDP1): qHTS in cells in presence of CPT; also: nearly all actives have a fitted effect of over 55% in size
Conditions: chicken DT40 Tdp1-/-;hTDP1 cells + 20 nM CPT, ATP luminescence, 48 h; activity change, negative = growth inhibition: at 46.2 µM (top of the series) unless noted
How it was run: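 Chicken DT40 Tdp1-/- cells complemented with human TDP1, 400 cells/well, exposed to compounds plus 20 nM camptothecin for at least 48 h at 37 C; viability read as ATP content by CellTiter-Glo luminescence.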
With `Cc1ccc(CNC(=O)CCc2c(C)nn(-c3ccc(N4CCCCC4)nn3)c2C)cc1` the Potency was inconclusive [inhibitor, single point]. With `O=C(COc1ccccc1C(=O)Nc1ccccc1)NC1CCCCC1` the Potency was inconclusive [inhibitor, single point]. For `CN1CCC(=C2c3ccccc3CCc3cccnc32)CC1`, the “activity change, negative = growth inhibition” value was inactive: 14.8%. With `Cn1cc(C(=O)N/N=C/C(Br)=C\c2ccccc2)ccc1=O` the Potency was active: 2.31 µM. For `COc1cccc(C(=O)/C=C/Nc2cc(C)ccc2O)c1`, the Potency was inconclusive [inhibitor, single point]. With `COc1ccc(Cc2c(-c3ccc(Cl)cc3)nc3cc(C)c(Br)c(C)n23)c(C)c1` the Potency was inconclusive [inhibitor, partial curve]. With `COc1ccc(C(=O)NCC(C)(C)SCc2c(C)cc(C)cc2C)cc1` the Potency was active: 23.1 µM. With `O=C(NC1CCCCCC1)C1CCN(C(=O)N2CCOc3ccccc32)CC1` the Potency was inconclusive [inhibitor, partial curve]. In the case of `COc1ccc(N(C)S(=O)(=O)c2cccc(C(=O)NCC3CCCO3)c2)cc1` (stereo not given), the activity change, negative = growth inhibition is reported as inconclusive: -31.7% [inhibitor]. For `COc1ccc(C(=O)CSc2nc(SC)ns2)cc1OC`, the “activity change, negative = growth inhibition” value was inactive: -16%. With `Cc1cc(C)nc(N2CCCC(C(=O)NCc3cccc(C(F)(F)F)c3)C2)n1` (stereo not given) the Potency was inconclusive [inhibitor, single point]. With `CN(C)/C=N/c1ncc(C(=O)c2ccc(-c3ccccc3)cc2)s1` the “activity change, negative = growth inhibition” value was inactive: -10.6%. With `CC1CCCC(NC(=O)COC(=O)Cc2ccc(Cl)cc2)C1C` (stereo not given) the Potency was inconclusive [inhibitor, partial curve]. With `Cc1cc(OCC(=O)Nc2ccc(CCO)cc2)c2c(C)c(C)c(=O)oc2c1` the Potency was inconclusive [inhibitor, single point]. In the case of `COC(=O)C1=CN(c2ccc(F)cc2)C(N)=C(C#N)C1c1ccccc1` (stereo not given), the Potency is reported as inconclusive [inhibitor, single point]. For `CC(OC(=O)c1n[nH]c2ccccc12)C(=O)Nc1ccccc1[N+](=O)[O-]` (stereo not given), the Potency was inconclusive [inhibitor, single point]. In the case of `CCOC(=O)C1=C(C)N=c2s/c(=C/c3cccc([N+](=O)[O-])c3O)c(=O)n2C1c1ccc(OC)cc1OC` (stereo not given), the Potency is reported as inconclusive [inhibitor, single point]. In the case of `O=C(COC(=O)c1ccccc1SCC(=O)N1CCCC1)Nc1ccc(OC(F)F)cc1`, the “activity change, negative = growth inhibition” value is reported as inactive: -16%. For `CC1(C)CCCN(C(=O)c2coc(=O)c(Br)c2)C1`, the Potency was active: 0.92 µM. In the case of `Cc1cc(C)cc(-n2c(O)c(C=NC3CCS(=O)(=O)C3)c3ccccc3c2=O)c1` (stereo not given), the Potency is reported as active: 16.4 µM. With `Cc1nc(C)c(-c2ccc(SCC(=O)Nc3ccc(F)c(F)c3)nn2)s1` the Potency was active: 13 µM. With `CC(C)(C)n1nnnc1C(c1ccc(C(F)(F)F)cc1)N(Cc1ccc(F)cc1)Cc1ccco1` (stereo not given) the Potency was inconclusive [inhibitor, single point]. With `COc1cc(OC)c(N(C)C(=O)Cn2ncc3c([nH]c4ccccc43)c2=O)cc1Cl` the Potency was inconclusive [inhibitor, single point]. With `Cc1cc(NC(=O)/C=C/c2cccc(F)c2)n(-c2nc3ccccc3[nH]2)n1` the Potency was active: 23.1 µM. For `Cc1ccccc1S(=O)(=O)NC(=NCc1ccc(F)cc1)c1ccccc1`, the activity change, negative = growth inhibition was inconclusive: -31.1% [inhibitor]. With `COc1ccccc1C(=O)NCCC(=O)NCCC12CC3CC(CC(C3)C1)C2` the Potency was inconclusive [inhibitor, partial curve]. In the case of `COCCN(CC(=O)Nc1cccc(C)c1C)C(=O)c1cc(-c2cccs2)nn1-c1ccccc1`, the Potency is reported as inconclusive [inhibitor, single point]. For `COC(=O)c1ccc(CCc2cc(O)c(Br)cc2O)cc1`, the Potency was active: 2.06 µM. In the case of `O=C(O)C1C2CCC(C2)C1C(=O)N1CCCC1` (stereo not given), the “activity change, negative = growth inhibition” value is reported as inactive: -11.9%. In the case of `Cc1ccc(NC(=O)c2cc(S(=O)(=O)N3CCCC(C)C3)cn2C)c(Br)c1` (stereo not given), the Potency is reported as inconclusive [inhibitor, partial curve, poor fit]. With `COc1cc(/C=C(\C#N)c2nc3ccccc3n2C)cc(OC)c1OC` the Potency was active: 29.1 µM. For `Cn1c(=O)c2c(-c3cccc(Br)c3)n(CCO)cc2n(C)c1=O`, the Potency was inconclusive [inhibitor, single point]. For `Cc1ccc(-c2cccc(C(=O)NCc3ccccc3)n2)c2ccccc12`, the Potency was inconclusive [inhibitor, single point]. In the case of `C[C@@H]1CCC[C@@]2(O[C@H](CCO)C[C@H](O)[C@H]2O)O1`, the activity change, negative = growth inhibition is reported as inconclusive: -31.1% [inhibitor]. For `COc1ccc(C/C(N)=N/OC(=O)Cc2ccc(OC)c(OC)c2)cc1`, the Potency was inconclusive [inhibitor, single point]. For `CCOCCCNC(=O)C1CCN(Cc2cccc(OCc3ccccc3)c2)CC1`, the activity change, negative = growth inhibition was inconclusive: -32% [inhibitor]. In the case of `O=C(COc1ccccc1)N1CCN=C1SCc1cccc(F)c1`, the “activity change, negative = growth inhibition” value is reported as inactive: -17.8%. In the case of `Cc1ccc(C(=O)N2CCC(n3nccc3NC(=O)C3CCOC3)CC2)cc1` (stereo not given), the “activity change, negative = growth inhibition” value is reported as inactive: 13.6%. For `CC(C)N(C(=O)CN1C(=O)NC(c2ccccc2)(c2ccccc2)C1=O)C(C)C`, the Potency was inconclusive [inhibitor, single point]. In the case of `COc1ccc(-n2nnc3c(SCC(=O)NCc4ccco4)ncnc32)cc1`, the Potency is reported as inconclusive [inhibitor, partial curve, poor fit]. For `CCN1CCN(c2oc(/C=C/c3ccccc3OC)nc2C#N)CC1`, the Potency was inconclusive [inhibitor, single point]. In the case of `CN(Cc1ccccc1)C(=O)CN(C)S(=O)(=O)c1ccc(F)cc1`, the “activity change, negative = growth inhibition” value is reported as inactive: -6.82%. For `Cc1n[nH]c(C)c1CCOc1ccc(C(C)C)cc1`, the Potency was inconclusive [inhibitor, single point]. With `CCCCCCN1C[C@H](n2cc(-c3ccc(F)cc3)nn2)[C@@H](O)C[C@@H]1c1ccc(C)cc1` the Potency was active: 13 µM. In the case of `O=C(OCC(=O)c1ccco1)c1ccc2ncsc2c1`, the “activity change, negative = growth inhibition” value is reported as inactive: 0.532%.
